# In all, about 150,000 compounds went through this assay and about 6,500 (4.3%) were called active. The inconclusive results got no clear call from the source; some entries with a clear call stand among them for comparison. Calls come from the whole dose curve; as a rule, active = well fitted inhibition curve with a large enough effect (not every such curve was filed as active); inconclusive = small, poorly fitted or top-dose-only effect, or another doubt; inactive = no such curve, though single readings can be large or run the other way. No potency is given beside an inconclusive call; the fits are too rough.
# Target: 15-hydroxyprostaglandin dehydrogenase [NAD(+)] (Homo sapiens) (UniProt P15428)
# Experiment: qHTS Assay for Inhibitors of HPGD (15-Hydroxyprostaglandin Dehydrogenase)
# Conditions: purified HPGD, NADH fluorescence kinetic, PGE2 substrate; activity change, negative = inhibition: active compounds read low
# Summary of the method: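 NADH formation kinetics: reaction with 30 uM PGE2 and 1 mM NAD+ (final), 20 nM enzyme, Tris-HCl pH 8 with Tween 20, after 15 min compound preincubation at room temperature. Fluorescence change, last versus first of five reads.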
# % is set by controls: 0 for no effect and ±100 for the full control effect; potency is the fitted concentration of half-maximal effect; tags give direction and shape of the fitted curve.
# Sequence of UniProt P15428 (P15428 whole entry, looked up): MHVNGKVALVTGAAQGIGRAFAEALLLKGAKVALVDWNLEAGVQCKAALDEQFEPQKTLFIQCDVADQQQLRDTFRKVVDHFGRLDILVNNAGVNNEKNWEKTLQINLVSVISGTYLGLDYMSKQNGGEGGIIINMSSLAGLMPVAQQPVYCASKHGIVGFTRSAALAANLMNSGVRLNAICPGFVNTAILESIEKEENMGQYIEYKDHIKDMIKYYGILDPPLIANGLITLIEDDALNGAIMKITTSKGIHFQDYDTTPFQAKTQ
SMILES,"activity change, negative = inhibition",Potency
CCOc1ccc(S(=O)(=O)N2CCCCCC2)cc1,inactive: -17.5%,
O=C(CSc1ncccn1)c1ccccc1Br,,"inconclusive [inhibitor, single point]"
Cn1nc(Oc2nc(N3CCOCC3)nc(N3CCOCC3)n2)ccc1=O,inactive: -6.92%,
O=C(O)c1cc(S(=O)(=O)O)ccc1O,,"inconclusive [inhibitor, partial curve]"
CC1CCN(C(=O)c2cc(-c3ccc(Cl)c(Cl)c3)on2)CC1,,active: 14.1 µM
CCCc1cc(=O)oc2cc(C)c3c(C)coc3c12,,"inconclusive [inhibitor, partial curve]"
CCOc1ccc2oc(-c3ccccc3)c(C(=O)N3CCN(C)CC3)c2c1,,"inconclusive [inhibitor, partial curve]"
C=CCSc1nnc(-c2cc3c(-c4ccccc4)nn(C)c3s2)n1C,,"inconclusive [inhibitor, partial curve]"
CC1(C)CC(CC(=O)Nc2nccs2)(c2ccccc2)CCO1 (centres undefined),inactive: -5.19%,
COc1cc(/C=N/n2cnnc2)ccc1OCc1ccc(C)cc1,,"inconclusive [inhibitor, single point]"
CCCCNC(=O)C1COc2ccccc2O1 (centres undefined),,active: 15.8 µM
Oc1ccccc1Cn1c(-c2ccccc2O)nc2ccccc21,,"inconclusive [inhibitor, partial curve, poor fit]"
COc1ccc2oc(C(=O)OCC(=O)NC(=O)NC(C)C)c(C)c2c1,,"inconclusive [inhibitor, partial curve]"
CC(=O)c1c(C)[nH]c(C(=O)COC(=O)CN(C)S(=O)(=O)c2ccc(Cl)cc2)c1C,,"inconclusive [inhibitor, single point]"
Cn1c(=NC(=O)c2ccc(S(=O)(=O)N3CCCc4ccccc43)cc2)sc2cc(S(C)(=O)=O)ccc21,,"inconclusive [inhibitor, partial curve]"
O=C1OC2(c3ccc(O)cc3Oc3cc(O)ccc32)c2c1c(-c1ccccc1)c(-c1ccccc1)c(-c1ccccc1)c2-c1ccccc1,,"inconclusive [inhibitor, partial curve]"
O=C=Nc1ccc(Cl)c(Cl)c1,inactive: -9.76%,
COC(=O)c1c2c(nc3ccccc13)CCC2,,"inconclusive [inhibitor, partial curve]"
COc1cc2c(cc1OC)-c1cc3nc4ccccc4nc3n1C(C)(C)C2,,"inconclusive [inhibitor, partial curve, poor fit]"
CCOC(=O)c1[nH]c2ccc(OC)cc2c1NC(=O)CCN1CCN(Cc2ccccc2)CC1,,"inconclusive [inhibitor, partial curve]"
CCOC(=O)c1cc2nc(-c3ccco3)cc(C(F)(F)F)n2n1,,"inconclusive [inhibitor, partial curve]"
CN(C)c1ccnc2sc3c(SCc4ccc(Cl)cc4)ncnc3c12,,active: 15.8 µM
O=C(Nc1nc(-c2ccco2)c(-c2ccco2)s1)C1CC(=O)N(c2ccc3c(c2)OCCO3)C1 (centres undefined),,"inconclusive [inhibitor, partial curve]"
COc1ccc(CCNc2ccncn2)cc1OC,inactive: -3.19%,
COc1ccc(NC(=O)CCCn2c(=O)c3sccc3n(Cc3ccccc3C)c2=O)cc1,inactive: -15.3%,

SMILES,"activity change, negative = inhibition",Potency
Cc1c(C(=O)N2CCCCC2)sc(NC(=O)c2ccco2)c1C#N,,active: 15.8 µM
CCCCn1nc2cc(C(=O)NCc3ccc(OC)cc3)ccc2c1OCC,,"inconclusive [inhibitor, partial curve]"
O=C(CN1C(=O)COc2ccccc21)Nc1ccc2c(c1)OCCO2,inactive: -10.7%,
Cc1nnc(NC(=O)C(C)Oc2ccc3c(C)cc(=O)oc3c2)s1 (centres undefined),,"inconclusive [inhibitor, partial curve, poor fit]"
COC(=O)[C@@]1(C)C=C[C@@H](Cc2ccccc2)N1C(=O)c1ccccc1,inactive: 1.33%,
Cc1nn(Cc2ccccc2)c(Cl)c1C(=O)NCCc1ccc(Cl)cc1,inactive: -10.5%,
O=C(NCc1cccnc1)c1c[nH]c2cc3c(cc2c1=O)OCCO3,,"inconclusive [inhibitor, partial curve]"
Cn1cc(Cl)c(C(=O)Nc2cnn(Cc3ccc(F)cc3)c2)n1,inactive: -3.86%,
C=CCNc1nc2c(c(=O)n(C)c(=O)n2C)n1CCCCCC,inactive: -14.7%,
O=C(CSc1ncn(-c2ccccc2)n1)c1cccs1,,active: 8.91 µM
CCOC(=O)Cc1csc(NC(=O)CSc2nc3sc(C(=O)O)c(C)c3c(=O)[nH]2)n1,,"inconclusive [inhibitor, partial curve]"
Cn1ccnc1SCC(=O)Nc1cccc2ccccc12,,active: 25.1 µM
N#Cc1c(NC(=O)CSc2nc3c(c(C(F)(F)F)n2)CCc2ccccc2-3)sc2c1CCCC2,,"inconclusive [inhibitor, single point]"
Cc1ccc(S(=O)(=O)N/N=C\c2ccc(Cl)c([N+](=O)[O-])c2)cc1,inactive: -14.8%,
CC(C)c1c(O)nc(SCCN(C)C)[nH]c1=O,inactive: -4.52%,
O=C(Nc1nc2ccccc2s1)c1ccc(Cl)s1,inactive: -10.2%,
Nc1c(S(=O)(=O)c2cc(Cl)ccc2Cl)c2nc3ccccc3nc2n1CCN1CCOCC1,,"inconclusive [inhibitor, partial curve]"
Cn1c(=O)n(C)c2cc(/C=N/NC(=O)c3cccc(Br)c3)ccc21,,"inconclusive [inhibitor, single point]"
O=c1c2c3c(sc2n(CCN2CCOCC2)c(=O)n1Cc1ccco1)CCCCC3,inactive: -14.4%,
CCc1cc(=O)oc2cc(C)cc(OC(C)C(=O)O)c12 (centres undefined),,"inconclusive [inhibitor, partial curve]"
Cc1ccc(-c2nnc(CSc3nc4cc5c(cc4cc3C)OCO5)o2)cc1,,active: 17.8 µM
CCOC(=O)c1cnc(SC)nc1Sc1cc(Cl)ccc1Cl,,active: 7.08 µM
O=C1OC2(CCCCC2)OC(=O)C1=CNc1nc2ccccc2s1,inactive: -10.2%,
COc1cc(NC(=O)c2ccco2)c(C(=O)OCC(=O)c2c[nH]c3ccccc23)cc1OC,,"inconclusive [inhibitor, partial curve]"
Cc1cc(N2CCCCC2)ccc1[N+](=O)[O-],,active: 22.4 µM

SMILES,"activity change, negative = inhibition",Potency
N#CC1=C(N)Oc2c(ccc3ccccc23)C1c1cccs1 (centres undefined),inactive: -13%,
CC(C)(C)Nc1nc(NC(C)(C)C)nc(-n2ccnc2)n1,inactive: -5.65%,
CCc1cccc(CC)c1NC(=O)CSc1nc2ccc(N3C(=O)C4C(C3=O)[C@H]3C=C[C@@H]4C3)cc2s1 (some centres undefined),,active: 20 µM
CCOc1ccc2nc(SCC(=O)c3cccs3)sc2c1,,active: 5.01 µM
O=C(CN(C1CCCCC1)S(=O)(=O)c1ccc(Cl)cc1)NCc1ccncc1,inactive: 1.45%,
Clc1cccc(Oc2cnns2)c1Cl,inactive: -28.4%,
COc1ccc(C2=Nc3nc(-c4ccccc4)cn3C(c3ccc(OC)cc3)C2)cc1 (centres undefined),,"inconclusive [inhibitor, single point]"
COC(=O)/C(=C1\OC(=O)C(c2ccccc2)C1=O)c1ccccc1 (centres undefined),inactive: -12.6%,
CN(C)CCNC(=O)c1ccc(COc2ccc(Cl)cc2Cl)cc1,,"inconclusive [inhibitor, partial curve]"
NC(=O)c1c(N)sc2c1CCCCC2,,"inconclusive [inhibitor, partial curve]"
O=C(Nc1ccc2c(c1)CCC2)c1cc(S(=O)(=O)N2CCN(c3ccccc3)CC2)ccc1Cl,inactive: -1.05%,
CCOC(=O)c1c(NC(=O)COc2cccc3c2CCN(C)C3=O)sc2c1CCC2,,"inconclusive [inhibitor, single point]"
Cc1cc2cc(CNC(=O)NC3CCCCC3)ccc2[nH]1,,"inconclusive [inhibitor, partial curve]"
O=C(NCC1CCCO1)Nc1ccc(Cl)cc1 (centres undefined),,"inconclusive [inhibitor, partial curve, poor fit]"
CCC(=O)Nc1ccc2oc(-c3ccccc3Br)nc2c1,,"inconclusive [inhibitor, partial curve]"
CC(=O)c1c(C)[nH]c(C(=O)N2CCc3ccccc3C2)c1C,,active: 17.8 µM
Oc1ccccc1-c1nnc(COc2ccccc2)o1,,"inconclusive [inhibitor, single point]"
Cc1ccccc1Oc1cccc(C(=O)/C(C#N)=C/N(C)C)c1,,"inconclusive [inhibitor, partial curve, poor fit]"
COc1cccc(Nc2ccc(C(=O)O)cc2[N+](=O)[O-])c1,,active: 28.2 µM
CC(=O)c1ccc(NS(=O)(=O)c2ccc(CC(C)C)cc2)cc1,,"inconclusive [inhibitor, partial curve]"
C=CCNc1nc(-c2ccc(OC)cc2OC)cs1,,"inconclusive [inhibitor, single point]"
CC1CCN(C(=O)CSc2nc3ccccc3s2)CC1,,active: 14.1 µM
CCn1c(N)c(C(=O)NCc2ccc3c(c2)OCO3)sc1=S,,active: 15.8 µM
O=C(NCc1ccccc1)Nc1cccn(Cc2ccccc2F)c1=O,,"inconclusive [inhibitor, partial curve]"

# — PubChem BioAssay AID894 (National Center for Advancing Translational Sciences (NCATS), 2007)
